Laboratory results: PubChem BioAssay AID624171 (National Center for Advancing Translational Sciences (NCATS), 2012)
The campaign covered roughly 410,000 compounds. About 1,200 (0.29%) were called active. The inconclusive results got no clear call from the source; some entries with a clear call stand among them for comparison. The call rests on the fitted dose curve; in most records, active means well fitted activation curve with a large enough effect; inconclusive means small, poorly fitted or top-dose-only effect; inactive means flat fitted curve, though single readings scatter. Potencies of inconclusive entries are doubtful fits and often do not repeat.

Test: qHTS of Nrf2 Activators; further: nearly all actives have a fitted effect of over 65% in size
Details: AREc32 ARE-luciferase reporter (MCF7-derived line), luminescence, 24 h; series mostly up to 46.1 µM
Outline: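 Steps: seed AREc32_Fluc cells (1000/well, 5% FBS OPTI-MEM); incubate overnight at 37 deg C; add 23 nL compound; incubate 24 hr; add Steady-Glo; hold 30 min RT; read luminescence.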
Potency means the concentration at half of the fitted maximal effect; tags describe the fitted curve by direction and shape.

| SMILES | Potency |
| --- | --- |
| O=C(Nc1cc(Cl)ccc1-n1cncn1)c1cc(F)c(F)c(F)c1F | inconclusive: 22.4 µM [activator, single point] |
| C#Cc1ccccc1OCCCN1CCC(C(O)(c2ccccc2)c2ccccc2)CC1 | inactive |
| CCCNC(=O)COC(=O)c1ccccc1C(=O)c1ccc(Cl)c([N+](=O)[O-])c1 | inconclusive: 3.16 µM [activator, single point] |
| N#C/C(=C\c1ccccc1[N+](=O)[O-])c1nc(C2CC2)cs1 | active: 10 µM |
| O=C(O)CCn1cc(/C=C/C(=O)c2ccc(Cl)cc2)c(-c2cccc(Br)c2)n1 | inconclusive: 28.2 µM [activator, single point] |
| Brc1ccccc1-c1nnc(-c2cccnc2)o1 | active: 15.8 µM |
| O=C(Nc1nc2c(F)cc(F)cc2s1)c1ccc([N+](=O)[O-])o1 | inconclusive: 17.8 µM [activator, partial curve, poor fit] |
| O=C(c1ccc(Br)cc1)N(Cc1ccco1)C1CCS(=O)(=O)C1 (centres undefined) | inactive |
| O=C(CN1C2=NCCN2c2ccccc21)c1ccc2c(c1)OCO2 | inactive |
| O=C(O)CCc1ccc(-c2ccccc2)o1 | inconclusive: 31.6 µM [activator, single point] |
| Cc1ccc2cccc(NC(=S)NC(=O)c3ccccc3)c2n1 | active: 3.98 µM |
| NC(=O)COC(=O)/C=C/c1ccccc1[N+](=O)[O-] | inconclusive: 14.1 µM [activator, single point] |
| CN1C(=S)N(c2cccnc2)C(=O)/C1=C\c1ccc(C(C)(C)C)cc1 | inconclusive: 28.2 µM [activator, single point] |
| N=C1S/C(=C\c2ccco2)C(=O)N1c1nccs1 | inconclusive: 12.6 µM [activator, partial curve, poor fit] |
| Cc1cccc(N=C2NC(=O)S/C2=C\c2ccco2)c1 | inconclusive: 1.78 µM [activator, full curve, poor fit] |
| Cc1ccc(C)c(Nc2nn3c(=O)c4ccc(C(=O)N(C)Cc5ccccc5)cc4nc3s2)c1 | inactive |
| O=C(CC(n1cncn1)C(Cl)(Cl)Cl)c1ccc([N+](=O)[O-])cc1 (centres undefined) | inconclusive: 25.1 µM [activator, single point] |
| O=C(COc1ccccc1)NCC(=O)N/N=C/c1cc(Br)ccc1OCc1ccccc1 | inactive |
| O=C(NCCS(=O)(=O)N1CCN(c2ccccc2F)CC1)c1ccc(Cl)cc1 | inactive |
| CC(NC(=O)/C=C/c1ccco1)c1nc2ccccc2n1Cc1cccc(Cl)c1 (centres undefined) | inconclusive: 12.6 µM [activator, partial curve] |
| Cc1ccc(NC(=S)NC(=O)c2ccc(F)cc2)cc1S(=O)(=O)Nc1cccc(Cl)c1 | inactive |
| COc1ccc(Nc2oc(/C=C/c3cc(OC)c(OC)c(OC)c3)nc2C#N)cc1 | inactive |
| Fc1cccc(F)c1/C=C/c1ccc2ccccc2n1 | inconclusive: 3.55 µM [activator, partial curve, poor fit] |
| COc1cc(C=C(c2nc3ccccc3s2)c2nc3ccccc3s2)cc(OC)c1O | inconclusive: 12.6 µM [activator, partial curve] |
| O=C(NC1C=CS(=O)(=O)C1)c1sc2ccccc2c1Cl (centres undefined) | inconclusive: 35.5 µM [activator, single point] |

| SMILES | Potency |
| --- | --- |
| O=C(NCCc1ccc(Cl)cc1)C1CCN(S(=O)(=O)N2CCCC2)CC1 | inactive |
| C=C1CC2(OC1=O)c1ccccc1CCc1ccccc12 | inconclusive: 5.62 µM [activator, single point] |
| OCC1OC(n2cnc3c(NCc4ccco4)ncnc32)C(O)C1O (centres undefined) | inconclusive: 17.8 µM [activator, single point] |
| CCOC(=O)C1CCCN(C(=O)CCNC(=O)Cn2ccc3ccccc3c2=O)C1 (centres undefined) | inactive |
| O=C(CCc1ccccc1)Nc1cccc([N+](=O)[O-])c1 | inconclusive: 11.2 µM [activator, partial curve, poor fit] |
| O=[N+]([O-])c1cc2c(cc1[N+](=O)[O-])OCCOCCOCCOCCO2 | inconclusive: 20 µM [activator, single point] |
| COC(=O)c1cc(C)nc(Sc2ccccc2N)n1 | inconclusive: 17.8 µM [activator, single point] |
| Cc1cc2c(cc(C(=O)OC(C(=O)NCc3ccco3)C(C)C)n2C)o1 (centres undefined) | inactive |
| CCOC(=O)c1ccc(NC(=O)c2c(NCc3ccc(OC)c(OC)c3OC)sc3c2CCC(C)C3)cc1 (centres undefined) | inactive |
| COc1ccccc1OCC(=O)N/N=C/C=C/c1ccc([N+](=O)[O-])o1 | inconclusive: 5.62 µM [activator, single point] |
| COc1cc(NC(=O)c2noc3c2CC(C(C)(C)C)CC3)cc(OC)c1OC (centres undefined) | inactive |
| COC(=O)c1sc2cccc(F)c2c1S(=O)(=O)NCc1ccccc1Cl | active: 12.6 µM |
| CCOc1nc(C)ccc1-c1noc(-c2ccco2)n1 | inconclusive: 12.6 µM [activator, partial curve, poor fit] |
| Cc1cccc(Nc2nnc(-c3ccc(C)c(S(=O)(=O)N4CCOCC4)c3)c3ccccc23)c1 | inactive |
| CCOc1ccc(S(=O)(=O)Nc2ccc3c(c2)CCCN3S(=O)(=O)c2ccc(C)cc2)cc1 | inactive |
| Cc1ccc(-n2nc3c([n+]2[O-])CCc2c-3no[n+]2[O-])cc1 | active: 2.24 µM |
| CCCC1=C/C(=C/c2ccc(-c3ccccc3OC)o2)C(=O)O1 | inconclusive: 31.6 µM [activator, single point] |
| O=C(CCl)Nc1ccccc1Sc1ccccc1 | inconclusive: 25.1 µM [activator, single point] |
| O=C(Cn1c(=O)n(CC2CCCO2)c(=O)c2ccccc21)Nc1ccc(F)cc1F (centres undefined) | inactive |
| CCCCCN=C(N)N/N=C/c1c[nH]c2ccc(OC)cc12 | inactive |
| COc1cccc(C(=O)N2CCc3cc(OC)c(OC)cc3C2COc2ccc3c(C)cc(=O)oc3c2)c1 (centres undefined) | inactive |
| Fc1cccc(/C=N/Nc2ccccn2)c1 | active: 7.08 µM |
| CCCN1C(=O)/C(=c2\sc3nc(=O)c(Cc4ccc(C)cc4)nn3c2=O)c2ccccc21 | inactive |
| CCNc1ccccc(C(=O)/C=C/c2ccc3c(c2)OCO3)c1=O | inconclusive: 28.2 µM [activator, single point] |
| O=C(COC(=O)c1cc2ccccc2cc1O)Nc1ccccc1F | inconclusive: 10 µM [activator, partial curve] |

| SMILES | Potency |
| --- | --- |
| OC[C@@H]1CN(Cc2ccc3c(c2)OCO3)C[C@H](n2cnc3c(NC4CC4)ncnc32)O1 | inactive |
| CN(C)c1ccc(CNC(=O)c2ccc3c(c2)N(C)C(=O)C2CCCCN32)cc1 (centres undefined) | inconclusive: 31.6 µM [activator, single point] |
| O=C(NCCc1ccccc1)c1ccc(CSc2nc3ccncc3n2Cc2cccc(F)c2)cc1 | inactive |
| O=[N+]([O-])c1ccc(Oc2cccc(F)c2)c2ccncc12 | inconclusive: 17.8 µM [activator, partial curve, poor fit] |
| CCOc1cccc(/C=C/c2ccc3cccc(O)c3n2)c1OC | inconclusive: 1.41 µM [activator, partial curve, poor fit] |
| CCOC(=O)/C=C/C(=O)N1CCN(C(=O)/C=C/C(=O)OCC)CC1 | inconclusive: 25.1 µM [activator, single point] |
| CC(=O)Nc1cc(N=Cc2ccc(O)cc2O)c(Cl)cc1Cl | inconclusive: 35.5 µM [activator, single point] |
| CC(C)n1c(CN(C)Cc2ccccc2)nc2c1c(=O)n(C)c(=O)n2C | inactive |
| CCN(CC)C(=O)C1=CC(c2ccc3c(c2)OCO3)=NS(=O)(=O)N1C | inactive |
| CCOC(=O)c1c(NC(=O)c2ccco2)n(C2CCCCC2)c2nc3ccccc3nc12 | inconclusive: 22.4 µM [activator, single point] |
| O=C(OCC(=O)N1CCCC1)c1cc(Cl)ccc1Cl | inconclusive: 22.4 µM [activator, single point] |
| Clc1ccccc1C1Nc2cccc3cccc(c23)N1 | inconclusive: 15.8 µM [activator, partial curve, poor fit] |
| Cc1cccc(C(=O)NCCC(=O)NCc2ccccc2F)c1 | inactive |
| CCOc1ccccc1N=Cc1c(O)c2ccccc2oc1=O | inconclusive: 31.6 µM [activator, single point] |
| CCC(=O)Nc1cccc(C(=O)/C=C/c2cc(Br)ccc2OC)c1 | inconclusive: 5.01 µM [activator, single point] |
| COc1ccc(CCN2C(=S)N(c3ccc(Cl)cc3)C(=O)C2CC(N)=O)cc1OC (centres undefined) | inconclusive: 28.2 µM [activator, single point] |
| Cc1ccc(NC(=O)Nc2ccccc2F)cc1S(=O)(=O)N1CCOCC1 | inactive |
| CC(/C=N/NC(=O)c1cnccn1)=C\c1ccco1 | active: 8.91 µM |
| N/C(=N/OC(=O)c1ccccc1Cl)c1ncc([N+](=O)[O-])s1 | inconclusive: 3.16 µM [activator, single point] |
| O=C(Nc1nc2ccccc2n1CCN1CCCCC1)c1ccco1 | inconclusive: 17.8 µM [activator, single point] |
| N#CCSc1ncnc2ccccc12 | inconclusive: 14.1 µM [activator, single point] |
| CCCCOc1ccc(C(=O)NCCc2csc(-c3ccc(OC)cc3)n2)cc1 | inactive |
| Cc1sc2nc(CN3CCOCC3)nc(Cl)c2c1C | inconclusive: 14.1 µM [activator, partial curve, poor fit] |
| CCOC(=O)CSc1ccc2nnc(-c3cccnc3)n2n1 | inactive |
